This assay deals with MC4R of the CHO stable cell line used for radioligand displacement (Table 1A) (UniProt P32245). The assay is described as follows: radioligand displacement, CHO stable cell line, n = 2; radioligand not named. Background: Loss of bound radioactivity is the signal in a displacement assay; it reports binding, not function.

B1: pN0162-huFcIgG1_N297A (Fc fusion)
chain: QVQLVESGGGLVQPGGSLRLSCAASGSAFSLNVMGWYRQTPGNQRALVAEITKDGSTNYADSAKGRFTISRDNAKNTVHLQMDSLKPEDTAVYYCKARTGRIVRPLDYWGQGTQVTVSS[in this place human IgG1 Fc with changes]
The molecule B1 yielded a Radioligand displacement (IC50 or Ki not stated) of 0.89 nM.

The record behind these values is patent US20260103529A1, “Amino Acid Sequences Directed Against the Melanocortin 4 Receptor and Polypeptides Comprising the Same for the Treatment of MC4R-Related Diseases and Disorders” (Confo Therapeutics N.V., priority 2022, published 2026).
